Measurements published in PubChem BioAssay AID1508623 (National Center for Advancing Translational Sciences (NCATS), 2021).
In all, about 48,000 compounds went through this assay and about 450 (0.94%) were called active. Inconclusive results (about 19%) are left out. Calls follow the shape of the dose curve; as a rule, active = well fitted inhibition curve with a large enough effect; inconclusive = small, poorly fitted or top-dose-only effect; inactive = no such curve, though single readings can be large or run the other way. Some of the results follow.

Test: Primary qHTS for Identification of Small Molecule Inhibitors of Huntingtin Promoter Activity; also: nearly all actives have a fitted effect of over 50% in size
Settings: HEK293 HTT promoter firefly luciferase reporter (activity 0% = vehicle and -100% = no light), 24 h; series mostly up to 57.5 µM; activity change, negative = inhibition: at the top concentration
How it was run: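 HEK293 luciferase promoter-reporter cells (2,500/well) plated 24 h, then compounds added at up to 57.5 uM final for 24 h at 37 °C. Firefly luminescence by Dual-Glo, normalized to vehicle (0%) and zero RLU (-100%).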

Activity change, negative = inhibition, inactive:
CCc1cnc2c(c1SCC(=O)c1ccc(OC)cc1)c(=O)n(C)c(=O)n2C -23.4%
CCCCN(CCCC)C(=O)C1CCN(S(=O)(=O)c2cccc3nsnc23)CC1 -29.2%
CCN(Cc1ccccc1)c1ncnc2c1nnn2C -11.5%
Cc1ccccc1CN1C(=O)c2ccccc2Sc2ccc(C(=O)NC3CCCC3)cc21 -27.8%
O=S(=O)(NCc1ccc(Cl)cc1)c1ccc(-c2cnc(C3CC3)o2)cc1 -18.4%
O=C(NCc1ccc(F)cc1)c1cc(-c2ccc(Cl)cc2)n[nH]1 -6.41%
CCC(C)NC(=O)CCSc1nc(-c2ccc(OC)cc2)cc(C(F)(F)F)n1 (configuration not stated) -29.3%
CCc1ccc(S(=O)(=O)c2nnn3c2nc(Nc2ccc(F)cc2)c2cc(Cl)ccc23)cc1 0.414%
O=C(O)c1cccc(Nc2ncnc3scc(-c4ccccc4)c23)c1 -21.4%
COc1ccc(NC(=O)c2cc(CN3CCCC3)on2)cc1Cl 50.3%
Nc1ccc(S(=O)(=O)Nc2ncccn2)cc1 8.11%
Cc1ccccc1C(=O)Oc1c(Sc2ccccc2)c(C)nn1C(C)(C)C -22.8%
Cc1ccc(C(=O)Nc2nnc(S(=O)(=O)N3CCc4ccccc43)s2)cc1 -15.5%
COc1ccc(CCNC(=O)Cn2ncc3c(=O)oc4ccccc4c32)c(OC)c1 -14.7%
CCOc1ccc(NC(=O)c2oc3ccccc3c2NC(=O)c2cc(C)cc(C)c2)cc1 -10.1%
CCOc1ccc(NC(=O)c2cnc(Nc3ccccc3OC)c3ccccc23)cc1 57.4%
COc1ccc(CC(=O)NCc2ccc3c(c2)CCN3C(=O)c2ccc(Cl)cc2)cc1 -13.9%
CCc1ccc2oc(-c3cc(NC(=O)c4cccnc4)cc(C)c3O)nc2c1 3.95%
CCOc1ccc(CCNC(=O)CCSCc2ccc(Cl)cc2)cc1OCC -29.1%
Cc1cccc(Cc2c(C)nc3nc(SCC(=O)NCc4ccccc4)nn3c2C)c1 -32.4%
CCOC(=O)CSc1nc2sc3c(c2c(=O)n1-c1ccccc1)CCC(C(C)(C)C)C3 (configuration not stated) -10.3%
O=C(Nc1cccc(Br)c1)N1CCC(CN2CCCCCC2)CC1 -9.24%
COc1cccc(CNC(=O)CN(c2ccc(C(C)C)cc2)S(=O)(=O)c2c(C)noc2C)c1 -27.5%
CCOC(=O)c1sc(NC(=O)c2cc3nc(-c4ccccc4)cc(C(F)(F)F)n3n2)c(C(=O)OCC)c1C -11.4%
Cc1cc(C)cc(Oc2c(C(F)(F)F)oc3cc(OCC(=O)NC4CCCCC4)ccc3c2=O)c1 -13.8%
Cn1c(=O)oc2cc(S(=O)(=O)N3CCC(C(=O)Nc4ccc(F)c(Cl)c4)CC3)ccc21 -14.8%
CCOC(=O)N1CCc2c(sc3c2c(=O)n(-c2ccc(CC)cc2)c(=O)n3Cc2cccc(Cl)c2)C1 -6.8%
CCC1CN(C(=O)N2CCC(C(=O)NCCc3ccc(OC)c(OC)c3)CC2)c2ccccc2O1 (configuration not stated) -14.2%
Cc1ccc(CNC(=O)CSc2c(C)cnc3c2c(=O)n(C)c(=O)n3C)cc1 35.6%
Cc1ccc(NC(=O)C2CCN(S(=O)(=O)c3cccc4nsnc34)CC2)cc1 -25.6%
CCn1cc(C(=O)OCC(=O)Nc2cc(Cl)ccc2C)c(=O)c2ccc(C)nc21 -6.45%
CCCCOc1ccc(C2C(=O)N(C3CCCCC3)CC(=O)N2C2CCCCC2)cc1 (configuration not stated) -5.51%
Cc1ccc(C)c(N2CCN(C(=O)c3cc4cc5ccc(C)cc5nc4o3)CC2)c1 -6.18%
CCc1cccc(NC(=O)Cn2c(=O)n(CCCCCC(=O)NCc3ccc(F)cc3)c(=O)c3sccc32)c1 -29.8%
C=CCc1cc(OC)c(O)c(C(=O)NCCO)c1
CCn1nc(C)c2c(-c3ccccc3)cc(=O)n(C(C)C(=O)Nc3ccc(OC)c(OC)c3)c21 (configuration not stated) -30.2%
COc1ccc(C2C=C(c3ccccc3)Nc3nc(NC(C)=O)nn32)cc1 (configuration not stated) -10.8%
CCOC(=O)c1ccccc1NC(=O)CN(c1ccccc1)S(=O)(=O)c1ccc(OCC)cc1 -27.8%
Cc1cccc(NC(=O)Nc2cccs2)c1C -1.84%
CO[C@@]1(NC(=O)C(C(=O)O)c2ccc(O)cc2)C(=O)N2C(C(=O)O)=C(CSc3nnnn3C)CO[C@@H]21 (some centres not stated) 15.7%
CCCCCCc1c(C)c2c(cc(C)c3c(C)coc32)oc1=O 7.53%
Cc1ccc(C)c(NC(=O)Cn2ncc3c(C)n(Cc4ccc(F)cc4)c(C)c3c2=O)c1 -12.5%
N#C/C(=C\c1ccc(O)cc1)C(=O)NCC1CCCO1 (configuration not stated) 20.2%
CC1=C(c2ccc(C)c(C)c2)S(=O)(=O)N(Cc2ccc(C(=O)NCc3ccccc3F)cc2)C1=O -37.9%
Cc1cc(C)cc(NC(=O)Cn2nnc(-c3ccccc3F)n2)c1 -17.8%
CCC1CCCCN1CCCNC(=O)c1ccc2c(c1)c(C)c(C)n2CC (configuration not stated) -3.58%
Cc1ccc(C)c(OCC(=O)Nc2sc3c(c2C#N)CCCC3)c1C -21.2%
CCOC(=O)c1c(Nc2ccc(C)c(C)c2)nnc(-c2ccccc2)c1-c1ccccc1 -26.2%
O=C(NCCc1ccccc1)c1c[nH]c2ccc(S(=O)(=O)Nc3ccc(F)cc3F)cc2c1=O -12.8%
CCCC(=O)Nc1cc2nn(-c3ccc(OC)cc3)nc2cc1C 52.6%
COc1ccc(CNC(=O)CN2N=C(c3ccc(Cl)cc3)CCC2=O)cc1 0.0545%
Cc1cc(C)c(NC(=O)Cn2c(=O)n(CCC(C)C)c(=O)c3cccnc32)c(C)c1 7.21%
COc1ccc(-c2nn(C)c3sc(C(=O)NCCN(C)C)cc23)cc1OC 5.5%
CCc1ccc(C(=O)c2cn(CC(=O)NCCc3ccccc3)c3nc(C)ccc3c2=O)cc1 4.85%
COc1cccc(NC(=O)C2CCCN(c3ncnc4onc(-c5ccc(F)cc5)c34)C2)c1 (configuration not stated) -9.24%
O=C(NCCSc1c[nH]c2ccccc12)c1ccc(Cl)cc1 -1.58%
Cc1ccc(N2CC(NC(=O)CCCc3ccccc3)CC2=O)cc1 (configuration not stated) -18.9%
O=C(NCCc1ccccc1)c1ccc2c(c1)N(Cc1ccc(Cl)cc1)C(=O)c1ccccc1S2(=O)=O 3.31%
CCN(c1ccccc1C)S(=O)(=O)c1nnc(NC(=O)c2ccc(OC)c(OC)c2)s1 -25.7%
Cc1ccc(C2=Nc3ccccc3N=C(c3ccc(F)cc3)C2)c(O)c1 -3.37%
CCc1nc(SC)ncc1C(=O)NCc1cccc(Br)c1 -6.01%
O=C(Cn1nc(Cc2cccnc2)c2ccccc2c1=O)N1CCN(c2ccccc2F)CC1 -14.5%
